Experimental findings from the supplement of paper PMC11417369 are described below.

The other results are listed elsewhere or left out.

The assay relates to PfAP2-HC AP2 domain (GST-tagged). Nature of the assay: gcPBM binding intensity (ln(normalized median fluorescence intensity)); higher = stronger DNA binding. An outline of the steps:
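Using an Agilent 4 × 180k array, primer-extended double-stranded 36-bp intergenic genomic probes and negative controls were exposed for 1 h to GST-fused P. falciparum DNA-binding domains expressed in E. coli. Binding was carried out in 1× PBS with 1% milk, 0.2 mg/ml BSA, 0.5% salmon testes DNA and 0.03% Triton X-100, and protein was detected with Alexa488 anti-GST antibody and a 488 nm scan. Binding intensity is the highest Masliner-normalised natural-log median intensity across replicate spots of either probe orientation.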
As for “GAAATACCGGAAAGCAAACACACATTTTAAAACCAT [CACACA_site3861]”, the “gcPBM binding intensity (ln)” value was found to be 9.89.
Take “ATATTTTTTGGAAAGTGTACAATATTATATATTAAA [XGTACX_site2163]”: the “gcPBM binding intensity (ln)” value came to 9.45.
The value for “AACCATGTTAACAATGCATGCATCACTATATAAACG [TGCATGCA_site421]” was 9.66; that for “ATACATATATATAGGTGTACATATAATATATATATA [XGTACX_site2228]” was 9.72.
Turning to “TTTAATTTTACATGAGAAACATATTACAATAAAATA [GTGCAC_negctrl_site606]”, the “gcPBM binding intensity (ln)” value worked out at 9.13.
The same measure for “TCAAGTATTAAAATGGGTACATAAATATGTGTATAT [XGTACX_site5884]”: 9.61; for “CATATAAAAAAATAGACACACATTTTATATAATACG [CACACA_site1896]”: 10; for “TATTTTTCTTTTTTTTTTTTTTTTATATTATACGTG [XGTACX_negctrl_site363]”: 9.53.
The same measure for “CTTTTTAAATTAAAATGTACAGAAAAATATTATTAT [XGTACX_site8760]”: 9.13; for “ATCATATGTATGCATACACACAAAAAGTTATTTATA [CACACA_site6325]”: 9.78.
As for “GAAAATCAGTTAAACACACACATAAAAAAAAAAAAA [CACACA_site2875]”, the “gcPBM binding intensity (ln)” value is 10.6.
The same measure for “ATATATACTATATTTTAACACACAAAAAAAAAAAAT [CACACA_site8277]”: 9.78.
“CTCAATATTATTACTACACACAAATTAATATTTTCC [CACACA_site55]”: the “gcPBM binding intensity (ln)” value worked out at 9.82.
The value for “CTTTTTTCAAGACACACACACAAGAAAATATAAATA [CACACA_site7455]” was 10.1.
With “TGTTAATTGAATGCAATCTGAATTTTTTTACATAAT [CACACA_negctrl_site1002]”, the “gcPBM binding intensity (ln)” value came out at 9.56.
In the case of “CACCCACCCAGACACACACACACAAAAAAAAAAAGA [CACACA_site499]”, the “gcPBM binding intensity (ln)” value is 11.2.
For the sequence “TATTTGTAAATCGATACACACATATATCTTAATATA [CACACA_site4273]”, the “gcPBM binding intensity (ln)” value stood at 9.68.
As to “TGGATAATGAATGATGCACACTAAAAATATTCTACA [CACACA_site5912]”, the “gcPBM binding intensity (ln)” value was 9.78.
Take “CGGCACGTGATATATACACACATATAGATATATACA [CACACA_site6408]”: the “gcPBM binding intensity (ln)” value worked out at 9.79.
Regarding “ATATATATAACATATACACACGTTCATATATATATA [CACACA_site4416]”, the “gcPBM binding intensity (ln)” value was 9.88.
The same measure for “TAATTTTTATTTTATTTTATTTTTTTTTTTTTTATT [CACACA_negctrl_site1671]”: 9.49.
Turning to “TTACAAGTAAAAGGTACACACATTATATATACAAAT [CACACA_site8290]”, the “gcPBM binding intensity (ln)” value worked out at 10.
The same measure for “TCACATGGAAAAAAGTGTACATAATTATGTATAAAT [XGTACX_site2827]”: 9.8.
The value for “TATAAAAAATAAAAAGTTTAATGAATATTTCTTTTA [TGCATGCA_negctrl_site379]” was 9.41; that for “AAAAAAAAAAAAATCACACACAATATGAATTTATAG [CACACA_site601]” was 10.1.
As to “AATACAATTTCTAGCACACAAAATATTATTATAATT [CACACA_site3223]”, the “gcPBM binding intensity (ln)” value was 9.92.
The value for “TATAGAAGCGTTCACACACACACATACATACCCATA [CACACA_site4915]” was 11.1; that for “AAAAAACAATCTCATACACACTAGGGATTAATTATT [CACACA_site5051]” was 9.87; that for “TCCCTAAAAAATGATAAATGGAGACAATTCCGACAA [GTGCAC_negctrl_site209]” was 9.44.
As to “TTATATATATTTAAATTTTATCTCACATATATATAT [TGCATGCA_negctrl_site275]”, the “gcPBM binding intensity (ln)” value amounted to 9.83.
In the case of “ATGGATAACAATATGTGTACACATTTATATCTCCAC [XGTACX_site5457]”, the “gcPBM binding intensity (ln)” value was found to be 9.85.
For “AAGCATGGATATTTTACACACATTTCCACGTAACAA [CACACA_site3141]”, the “gcPBM binding intensity (ln)” value was 9.91.
Consider “ATACATTTTTTTTATACGCACACGTCATACTTTTAA [CACACA_site1638]”, for which the “gcPBM binding intensity (ln)” value is 10.5.
The same measure for “ATATAATAGAAGTGTACACACATATTTATGTCTGTA [CACACA_site3121]”: 9.98; for “ACAAGACAGATATATACACACATACATACATACATA [CACACA_site7472]”: 9.97.
With “ATATTTATTTATATTACACACATGTGCAATTAAACT [CACACA_site6928]”, the “gcPBM binding intensity (ln)” value was determined as 10.
As for “TTTCTTAAAAAAAAAAAAAAAAGAAGATAAATAAAA [CACACA_negctrl_site289]”, the “gcPBM binding intensity (ln)” value was 9.2.
The same measure for “TTTAACTTATTCAATGCACACATTTTAATAAGATAT [CACACA_site1967]”: 9.64.
The same measure for “CTAGCAAATACATACACACACACACCGATACATATA [CACACA_site9164]”: 10.7; for “ATATATAATAATATATGTACATAATATTTTTTTTTT [XGTACX_site1941]”: 9.69; for “TAATGAAGATATATAACACACAAAAGTTATAAATAT [CACACA_site6678]”: 9.96.
The value for “GCCATTAATTTATACACACACATTAAAATTTTTTAT [CACACA_site4575]” was 10; that for “GCTATAAATACAGACGCACACATATACATACATATA [CACACA_site3329]” was 10.2.
For “TAATTATAAAAATAAAACAACCAAATTTGTTATATA [CACACA_negctrl_site750]”, the “gcPBM binding intensity (ln)” value was found to be 9.58.
